The results in this text go back to PubChem BioAssay (NCI).

Where “and” joins values, the source holds several entries; their conditions need not be identical. Equal values may be shown once.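 Dose response: 5 concentrations. Exposure: 48 h. Format: 96-well plates. Endpoint: linear interpolation; highest concentration if not reached. Abbreviation: GI50, concentration required for 50% inhibition of growth. TGI is the concentration that stops growth completely.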 Bounds are passed on as bounds.

In this assay the test system is NCI-H322M lung. Kind of assay: growth of human tumour cells (NCI), 48 h.
Turning to `C=C1C(=O)OC2/C=C(/C)C3CC(O)C(C)(CC(OC(=O)/C(C)=C/C)C12)O3` (configuration not stated), the TGI came out at 26 µM.
Consider `Cc1cc2cn3c4ccc(O)cc4[nH]c(=O)c3c2cc1C`, for which the GI50 is 0.0593 µM and the TGI is 1.83 µM.
The corresponding values for `CC(=O)[O-].[Mn+3].[O-]c1ccccc1C=NCCN=Cc1ccccc1[O-]` are 60 µM and > 100 µM.
Regarding `CCN(CC)c1ccc2c(c1)Oc1nc(N)c(C#N)c(N)c1C2Sc1ccc(OC)cc1` (configuration not stated), the GI50 is 1.65 µM and the TGI was 3.03 µM.
For the molecule `O=C(O)CNc1ccc(C(=O)O)cc1`, the TGI was > 100 µM.
Turning to `CCN(CC)CCNC(=O)c1ccc(I)cc1`, the TGI is > 100 µM.
`Cc1ccc2c(n1)C(=O)C=CC2=O` had a TGI of 31 µM.
On to `NCCN.NCCN.O=C[O-].O=C[O-].[Co+3].[O-][Cl+3]([O-])([O-])[O-]`, for which the GI50 is > 100 µM and the TGI was > 100 µM.
Turning to `C[C@@H](CN1CC(=O)NC(=O)C1)N1CC(=O)NC(=O)C1`, the TGI was 1490 µM.
Still for that read-out and setting: with `O=C(O)CS` the figure was > 100 µM; with `Cc1ccc2c(c1)C(=O)N1CCC[C@H]1C=N2`, > 100 µM.
As for `O=C(O)Cc1ccc(Oc2nc3ccccc3nc2C(=O)O)cc1`, the TGI is > 100 µM.
As for `COC1=CC(=O)C(OC)=C(OC)C1=O`, the GI50 is 20 µM and the TGI was 36.1 µM.
Regarding `CC(C)(C)NC(=O)NC12CC3CC(CC(F)(C3)C1)C2`, the TGI is > 100 µM.
Still for that read-out and setting: with `Cc1cc(-c2nc3ccccc3s2)ccc1N` the figure was > 100 µM.
Still for that read-out and setting: with `CCN1C2=NCCN2S(=O)(=O)c2ccccc21` the figure was > 100 µM.
For the molecule `O=C(/C=C/C=C/c1c(C2CC2)nc2ccccc2c1-c1ccc(F)cc1)c1cccs1`, the GI50 was 3.76 µM and the TGI is > 100 µM.
In the case of `O=C(O)CCC/C=C\C[C@H]1C=CC(=O)/C1=C/C[C@@H](O)CCc1cccc(C(F)(F)F)c1`, the GI50 is 5.71 µM and the TGI stood at 18.8 µM.
As for `C=C(C)CC1(O)C(=O)C(OCC)=C1OCC` (configuration not stated), the TGI is > 100 µM.
`CN(CCc1ccccn1)c1nc(=[N+](C)C)ss1`: the TGI is > 100 µM.
The same measure, in the same setting: with `Cc1nc(CN2CCCCC2)c(O)c(=O)[nH]1` the figure was > 100 µM; with `C=C1C(=O)C[C@@]23CCC[C@@]12CC(OCOC)C3` (some centres not stated), 26.1 µM; with `Cc1cc(S(=O)(=O)/N=C(\[N-]S(=O)(=O)c2ccc(Cl)cc2)[n+]2ccc(N(C)C)cc2)c(S)cc1Cl`, > 100 µM.
The same measure, in the same setting: with `CN(C)CCSc1cccc(-c2cc(-c3cccc(SCCN(C)C)c3)nc(SCCN(C)C)n2)c1` the figure was 4.28 µM; with `COc1ccc(Cc2cc3c(cc2OCC(=O)O)OCO3)cc1`, > 100 µM; with `COC(=O)NC1(NC(=O)OC)NC(=O)c2cc(OC)c(OC)c(OC)c2N1`, > 100 µM.
On the same count and under the same terms, with `CC1(C)CC(=O)C2=C(C1)NC1=C(C(=O)CC(C)(C)C1)C2c1ccc([N+](=O)[O-])cc1` the figure was > 100 µM; with `Cc1[nH]c2ccccc2c1-c1cc(-c2cc(-c3c(C)[nH]c4ccccc34)nc(N)n2)nc(N)n1`, > 100 µM; with `Cc1ccc([N+](=O)[O-])cc1S(=O)(=O)Nc1ccc(C2=NNC(c3ccccc3O)C2)cc1` (configuration not stated), 90.1 µM.
`COc1cc(C)cc2c1c(=O)c1ccccc1n2C`: the TGI is > 100 µM.
On the same count and under the same terms, with `CCCCc1ccc(Nc2nc(=S)c3[nH]cnc3[nH]2)cc1` the figure was 46.8 µM; with `CCCC(=O)O[C@H]1C=C2C[C@@]34SS[C@]5(CC6=C[C@H](OC(C)=O)[C@@H]7O[C@@H]7[C@H]6N5C3=O)C(=O)N4[C@@H]2[C@H]2O[C@H]21`, 0.519 µM.
Still for that read-out and setting: with `COC1=CC23CCCN2CCc2cc4c(cc2C3C1O)OCO4` (configuration not stated) the figure was > 100 µM; with `CN(C)Cc1cc(C(C)(C)C)ccc1-c1ccc(C(C)(C)C)cc1CN(C)C`, > 100 µM.
For the molecule `O=c1c(O)cccc2cc(O)c(O)c(O)c12`, the GI50 is 6.52 µM and the TGI is > 100 µM.
With `CC1(C)OB(O)OC1(C)C`, the TGI is > 100 µM.
Same read-out and setting: with `O=S(=O)(N/N=C/c1cccc(Cl)c1Cl)c1ccccc1` the figure was > 100 µM; with `CCN(CC)CCCNc1ncc(C)c2[nH]c3ccncc3c12`, 27.3 µM.
In the case of `O=C(CCCNc1nc(-c2ccccc2)cs1)c1cccs1`, the TGI was > 100 µM.
`COC1C(O)C(C)OC(OC2C(Oc3cccc4c(O)c5c(=O)oc6ccc(C)c7c(=O)oc(c34)c5c67)OC(C)C(O)C2O)C1O` (configuration not stated): the GI50 was 3.72 µM; the TGI was 25.6 µM and 16.1 µM.
Turning to `Cc1c2c(n(CCc3ccccc3)c1C)N(C)N=C(C#N)S2(=O)=O`, the TGI was > 100 µM.
In the case of `CCN(CC)CCCC(C)Nc1nc(C)cc(Nc2ccc3nc(C)cc(N)c3c2)n1` (configuration not stated), the GI50 was 16.5 µM and the TGI turned out to be 92.8 µM.
Consider `CC(C)CC(=O)Nc1n[nH]c2c1CN(C(=O)C1CCN(C)CC1)C2(C)C`, for which the GI50 is 2.14 µM and the TGI is > 10 µM.
For the molecule `Brc1c(C#CCC(c2ccccc2)(c2ccccc2)c2ccccc2)ccc(C#CCC(c2ccccc2)(c2ccccc2)c2ccccc2)c1Br`, the TGI was > 100 µM.
Take `O=C(N/N=C/c1ccc([N+](=O)[O-])o1)c1ccc(C(=O)N/N=C/c2ccc([N+](=O)[O-])o2)cc1`: the TGI was > 100 µM.
The same measure, in the same setting: with `N=c1c2c(=S)n(-c3ccccc3)c(=S)n(-c3ccccc3)c2nc(SCCCN2CCN(c3cccc(Cl)c3)CC2)n1-c1ccccc1` the figure was > 100 µM; with `O=C(/C=N/O)Nc1cc(Cl)c(Cl)cc1Cl`, > 100 µM; with `Cc1cc(N=Nc2c(O)ccc3ccccc23)ccc1N=Nc1cccc([N+](C)(C)C)c1`, 75.7 µM.
Still for that read-out and setting: with `C=C(C)C1CC/C(C)=C/CC[C@]2(C)O[C@H]2CC/C(COC(C)=O)=C\[C@@H]1O` (some centres not stated) the figure was > 50 µM; with `O=C(Nc1cc2c(=O)oc3ccccc3c2oc1=O)c1cccnc1`, > 100 µM; with `O=C(Cc1nc2ccccc2s1)C(=O)Nc1cccc(Cl)c1`, > 100 µM.
For the molecule `CC(=O)N1c2ccccc2NC2=C(C(=O)N(Cc3ccccc3)C2(C)C)C1c1ccco1` (configuration not stated), the GI50 was 1.11 µM and the TGI was > 25 µM.
For the molecule `C/C=C1/CN2CCC3(O)c4ccccc4N4C=C(C(=O)OC)C1CC2C43O` (configuration not stated), the TGI was > 100 µM.
For `CCOC(=O)C(C(=O)c1ccccc1C(=O)OC)=P(c1ccccc1)(c1ccccc1)c1ccccc1`, the TGI was > 10 µM.
Still for that read-out and setting: with `CC(=O)O[C@@H]1[C@@H](O)C2=C3[C@]4(C)[C@@H]1C(C)(C)C(=O)C[C@@H]4[C@]3(O)[C@H](OC(C)=O)[C@@]1(C[C@@H]1C)C2=O` the figure was 32.6 µM.
As to `COc1cc(/C=C/c2cc(/C=C/c3ccc(O)c(OC)c3)nc(N)n2)ccc1O`, the GI50 was 2.22 µM and the TGI was 5.39 µM.
With `CC(C)(C)OC(=O)N(O)CCCn1cnc2c(N)ncnc21`, the TGI was > 100 µM.
`Cc1ccc(NC(=O)C(=O)CC(=O)C2CCOC2=O)c(C)c1` (configuration not stated): the TGI was > 100 µM.
On to `CN1CCCCC(C#N)(c2ccccc2)CC1` (configuration not stated), for which the TGI is > 100 µM.
Regarding `CN1CCN(c2ccc(Nc3nc(N)c(C(=O)c4ccc5c(c4)OCCO5)s3)cc2)CC1`, the GI50 was 3.7 µM and the TGI was > 17.1 µM.
Take `CC(C)OP(=O)(OC(C)C)/C(C#N)=C/c1ccco1`: the TGI was > 100 µM.
`O=C(/C=C1\C[C@H]2C=Nc3ccccc3C(=O)N2C1)NCCCCNC(=O)/C=C1\C[C@H]2C=Nc3ccccc3C(=O)N2C1`: the TGI came to 31.6 µM.
In the case of `C=C1c2[nH]c3ccccc3c2C2C(CC)C1CCN2C` (configuration not stated), the TGI is > 100 µM.
